Data from PubChem BioAssay AID1745845 (National Center for Advancing Translational Sciences (NCATS), 2022).
“And” between values parts separate entries of the source, which are not always exact repeats. Equal values may be shown once. The whole screen tested about 360,000 compounds, of which about 2,600 (0.72%) were called active. The shares of active, inactive and inconclusive entries below differ from those in the screen. The call rests on the fitted dose curve; in most records, active means well fitted inhibition curve with a large enough effect; inconclusive means small, poorly fitted or top-dose-only effect; inactive means no such curve, though single readings can be large or run the other way. Potencies beside an inconclusive call are fits to weak or partial responses and may not hold up.

Experiment: Primary qHTS for Inhibitors of ATXN expression; further: nearly all actives have a fitted effect of over 55% in size
Details: HEK-293 ATXN2-luciferase reporter, luminescence, 24 h; activity change, negative = inhibition: at 57 µM (top of the series)
Procedure, shortened: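 qHTS (up to 57 uM final) was run with 24 h compound exposure of reporter cells at 37 °C. Each well was multiplexed: SteadyGlo luminescence measured ATXN2-luciferase expression after a fluorogenic Gly-Phe-AFC viability readout (25 uM final).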
On the % scale 0 is the no-effect control and ±100 the full control effect; potency means the concentration at half of the fitted maximal effect; tags describe the fitted curve by direction and shape.

Potency, inconclusive:
O=C1c2ccc(Cl)cc2S(=O)(=O)c2cccc(C(=O)N3CCC(Cc4ccccc4)CC3)c21 39.8 µM [inhibitor, single point]
O=C(Cc1cccs1)NCC1CCCO1 (stereo not drawn) 25.1 µM [inhibitor, single point]
CCOc1ccc(/C=N/NC(=O)c2[nH]ncc2Br)c(O)c1 3.16 µM [inhibitor, full curve]
O=C(COc1ccccc1F)Nc1nc(-c2ccccn2)cs1 26.7 µM [inhibitor, partial curve, poor fit]
O=S(=O)(CCSc1ccccn1)c1nc2ccccc2s1 39.8 µM [inhibitor, single point]
CCOC(=O)[C@]12CCC=C1N(Cc1ccccc1)C(=O)[C@H](CC(=O)NCc1cccc(C(F)(F)F)c1)C2 31.6 µM [inhibitor, single point]
O=[N+]([O-])c1ccc(COc2ccc(-c3[nH]ncc3-c3ccc(Cl)cc3)c(O)c2)cc1 39.8 µM [inhibitor, single point]
O=C(N/N=C/c1sc2ccccc2c1O)c1cccc2ccccc12 3.77 µM [inhibitor, full curve, poor fit]
FC(F)(F)c1cc(CCN2CCNC[C@@H]2Cc2ccccc2)cc(C(F)(F)F)c1 31.6 µM [inhibitor, partial curve, poor fit]
Cc1cc(C)c[n+](C(C)C(=O)c2ccc(-c3ccccc3)cc2)c1 (stereo not drawn) 10 µM [inhibitor, partial curve, poor fit]
COc1cc(C2c3c(-c4ccc(C)cc4)n[nH]c3C(=O)N2c2ccc(F)cc2)ccc1O (stereo not drawn) 39.8 µM [inhibitor, single point]
CCc1cccc(NC(=O)c2ccc3c(=O)n4c(nc3c2)CCCCC4)c1 15.8 µM [inhibitor, partial curve, poor fit]
O=C(N/N=C/c1ccc[nH]1)c1cc(-c2ccc(Cl)cc2)nc2ccccc12 21.2 µM [inhibitor, partial curve, poor fit]
COc1ccc(CNc2nc3ccccc3n2CCN2CCCCC2)cc1 39.8 µM [inhibitor, partial curve, poor fit]
CCN1CCN(c2ccc(S(=O)(=O)N3CCCCC3)cc2NC(=O)COc2ccc(Cl)c(C)c2)CC1 22.4 µM [inhibitor, partial curve, poor fit]
Cc1nc(C)c(-c2ccc(SCc3ccc([N+](=O)[O-])cc3)nn2)s1 10 µM [inhibitor, partial curve, poor fit]
O=C(Nc1ccc(OCC(F)(F)C(F)F)c(C(F)(F)F)c1)c1ccc(Cl)cc1 31.6 µM [inhibitor, single point]
COc1ccc2cc3cc(C(=O)N4CCN(Cc5ccc6c(c5)OCO6)CC4)oc3nc2c1 39.8 µM [inhibitor, single point]
CCc1ccc(NC(=O)C(C)n2nc(C)c([N+](=O)[O-])c2C)cc1 (stereo not drawn) 33.6 µM [inhibitor, partial curve, poor fit]
CC1CC(C)CN(C(=O)c2ccc3c(c2)N(Cc2ccccc2)CCS3)C1 (stereo not drawn) 39.8 µM [inhibitor, single point]
CCCCNc1ccc(C(CC(N)=O)NC(=O)Cc2ccc(Br)cc2)cc1[N+](=O)[O-] (stereo not drawn) 35.5 µM [inhibitor, single point]
COCCCNC(=O)c1ccc2nc3ccccc3c(=O)n2c1 39.8 µM [inhibitor, single point]
CS(=O)(=O)c1ccc(C(=O)OCC(=O)NCc2cccs2)cc1[N+](=O)[O-] 39.8 µM [inhibitor, single point]
CCOc1ccc(OCC(=O)Nc2nccs2)cc1 12.6 µM [inhibitor, partial curve, poor fit]
Cc1cccc(OCC(O)Cn2c(=N)n(CCN3CCCCC3)c3ccccc32)c1 (stereo not drawn) 28.2 µM [inhibitor, single point] and 22.4 µM [inhibitor, partial curve, poor fit]

Potency, active:
c1ccc(-n2ncc3c(N4CCCCC4)ncnc32)cc1 12.6 µM
Cc1ccc2nc(-c3cc(-c4ccccc4)no3)cn2c1 3.55 µM
CC(=O)ON=C1C=CC(=C(C#N)c2ccccc2)C=C1 14.1 µM

Activity change, negative = inhibition, inactive:
S=c1[nH]nc(CCc2ccc(Cl)cc2)o1 11.6%
CCC(=O)N/C(=N\OCc1ccc(F)cc1)c1nonc1NC(=O)CC 3.91%
Cc1nc(C)c(C(=O)O)s1 -11%
O=C(Nc1ccc(F)cc1)c1ccccc1S(=O)(=O)c1ccccc1[N+](=O)[O-] -14%
CSc1ccc(CN(C)C(=O)C(c2ccccc2)c2ccccc2)cc1 -17.7%
CCc1ccc(-c2nn(CC(=O)Nc3ccccc3C)c3c2cnc2ccc(C)cc23)cc1 14.1%
COc1cc(C2C(C(=O)c3ccc(C)o3)=C(O)C(=O)N2Cc2ccccc2)ccc1O (stereo not drawn) -20.6%
CCOc1ccc(-n2c(SCC(=O)N3CCCCCC3)nc3c([nH]c4ccccc43)c2=O)cc1 -2.3%
Cc1ccccc1NS(=O)(=O)c1ccc(C(=O)N2CC(C)OC(C)C2)cc1 (stereo not drawn) -8.06%
CCn1c(SCC(=O)N/N=C/c2ccc(OC)c(OC)c2)nc2ccccc21 5.45%
CCOc1ccccc1NC(=O)Cn1c(=O)n(Cc2ccco2)c(=O)c2ccc(C(=O)NC3CCCC3)cc21 -2.75%
O=C(Cc1ccc([N+](=O)[O-])cc1)N1CCCCCC1 -21.6%
O=C(Nc1ccccc1N1CCOCC1)c1ccc(F)c(S(=O)(=O)N2CCOCC2)c1 -7.62%
COc1ccccc1-c1cn[nH]c1-c1ccc(O)cc1O -2.15%
O=C(Cc1ccc2c(c1)OCCO2)N1CCN(S(=O)(=O)c2cccc(Cl)c2Cl)CC1 -5.01%
